Measurements from the supplement of paper PMC4967469.
A lower IC50 marks a more sensitive line; a fit beyond the top or the lowest dose is shown as a bound at that dose. AUC sums up the same curve from the lowest dose to the 256-fold higher top dose; values near 1 show little effect. For part of these data: Where the top dose is marked as inferred, it was derived from the fitted curves, not read from the paper. For part of these data: An entry number marks a drug with two screens in the source, which often give different values.

Legend:
Assay in all cases: Viability of human cancer cell lines after 72 h of drug (GDSC screen)
RDEA119 = compound: COc1cc(F)c(F)c(Nc2ccc(I)cc2F)c1NS(=O)(=O)C1(C[C@H](O)CO)CC1 [RDEA119]; details: top dose 5 µM, top dose inferred
Procedure: (§1)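 Human cancer cell lines in 384-well plates, medium with 10% serum, drug for 72 h over a 256-fold dose range (nine 2-fold or five 4-fold steps up to the top dose). Adherent lines were fixed and stained with the nucleic acid dye Syto60, suspension lines read with resazurin; signal relative to control wells, capped at 0 and 100%. One two-parameter sigmoid per drug and line, fitted in a mixed model over all curves with the slope shared within a line.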

JNK-9L = compound: Fc1cc(-c2ccnc(Nc3ccc(-n4cnc(N5CCOCC5)n4)cc3)n2)cc(N2CCOCC2)c1 [JNK-9L]; details: top dose 5.12 µM; top dose inferred
Procedure: as §1

OSU-03012 = compound: NCC(=O)Nc1ccc(-n2nc(C(F)(F)F)cc2-c2ccc3c(ccc4ccccc43)c2)cc1 [OSU-03012]; details: top dose 16 µM; top dose inferred
Procedure: as §1

CUDC-101 = compound: C#Cc1cccc(Nc2ncnc3cc(OC)c(OCCCCCCC(=O)NO)cc23)c1 [CUDC-101]; details: top dose 5.12 µM; top dose inferred
Procedure: as §1

QS11 = compound: OC[C@H](Cc1ccccc1)Nc1nc(Oc2ccc3c(c2)CCC3)nc2c1ncn2Cc1ccc(-c2ccccc2)cc1 [QS11]; details: top dose 10.24 µM
Procedure: as §1

AC220 = compound: CC(C)(C)c1cc(NC(=O)Nc2ccc(-c3cn4c(n3)sc3cc(OCCN5CCOCC5)ccc34)cc2)no1 [AC220]; details: top dose 1.024 µM; top dose inferred
Procedure: as §1

5-Fluorouracil = compound: O=c1[nH]cc(F)c(=O)[nH]1 [5-Fluorouracil]; details: top dose 32 µM; top dose inferred
Procedure: as §1

Row | Cell Line | AUC (RDEA119; screen: GDSC drug entry 1014) | IC50 (RDEA119; screen: GDSC drug entry 1014) | AUC (RDEA119; screen: GDSC drug entry 1526) | IC50 (RDEA119; screen: GDSC drug entry 1526) | AUC (JNK-9L) | IC50 (JNK-9L) | AUC (OSU-03012) | IC50 (OSU-03012) | AUC (CUDC-101) | IC50 (CUDC-101) | AUC (QS11) | IC50 (QS11) | AUC (AC220) | IC50 (AC220) | AUC (5-Fluorouracil) | IC50 (5-Fluorouracil)
1 | TOV-21G (ovary, adherent) | 0.789 | 2420 nM | 0.818 | 3140 nM | 0.799 | 2710 nM | 0.812 | 9490 nM | 0.811 | 3010 nM | 0.734 | 3180 nM | 0.984 | > 1020 nM | 0.957 | > 32000 nM
2 | TOV-112D (ovary, adherent) | 0.945 | > 5000 nM | 0.839 | 3440 nM | 0.498 | 316 nM | 0.511 | 1070 nM | 0.519 | 361 nM | 0.83 | 6490 nM | 0.907 | > 1020 nM | 0.817 | 18100 nM
3 | TT2609-C02 (thyroid, adherent) | 0.336 | 105 nM | 0.717 | 1350 nM | 0.438 | 214 nM | 0.473 | 840 nM | 0.534 | 400 nM | 0.895 | > 10200 nM | 0.985 | > 1020 nM | 0.821 | 20100 nM
4 | TT (thyroid, adherent) | 0.973 | > 5000 nM | 0.965 | > 5000 nM | 0.711 | 1610 nM | 0.868 | > 16000 nM | 0.932 | > 5120 nM | 0.904 | > 10200 nM | 0.982 | > 1020 nM | 0.979 | > 32000 nM
5 | TUR (B-cell lymphoma, suspension) | 0.91 | > 5000 nM | 0.948 | > 5000 nM | 0.509 | 338 nM | 0.777 | 5920 nM | 0.433 | 213 nM | 0.919 | > 10200 nM | 0.975 | > 1020 nM | 0.426 | 1280 nM
6 | TYK-nu (ovary, adherent) | 0.565 | 478 nM | 0.723 | 1410 nM | 0.647 | 845 nM | 0.738 | 5050 nM | 0.537 | 407 nM | 0.923 | > 10200 nM | 0.971 | > 1020 nM | 0.925 | > 32000 nM
7 | U031 (kidney, adherent) | 0.985 | > 5000 nM | 0.782 | 2160 nM | 0.506 | 332 nM | 0.762 | 5930 nM | 0.871 | > 5120 nM | 0.976 | > 10200 nM | 0.983 | > 1020 nM | 0.85 | 25600 nM
8 | U-87-MG (glioma, adherent) | 0.873 | > 5000 nM | 0.873 | > 5000 nM | 0.735 | 1710 nM | 0.82 | 11300 nM | 0.774 | 2360 nM | 0.958 | > 10200 nM | 0.984 | > 1020 nM | 0.88 | > 32000 nM
9 | U-118-MG (glioma, adherent) | 0.854 | 4970 nM | 0.924 | > 5000 nM | 0.877 | > 5120 nM | 0.872 | > 16000 nM | 0.711 | 1400 nM | 0.942 | > 10200 nM | 0.954 | > 1020 nM | 0.986 | > 32000 nM
10 | U-698-M (B-cell leukaemia, suspension) | 0.985 | > 5000 nM | 0.986 | > 5000 nM | 0.463 | 254 nM | 0.654 | 2670 nM | 0.684 | 1040 nM | 0.879 | > 10200 nM | 0.984 | > 1020 nM | 0.813 | 17300 nM
11 | UACC-893 (breast, adherent) | 0.913 | > 5000 nM | 0.876 | > 5000 nM | 0.869 | > 5120 nM | 0.932 | > 16000 nM | 0.795 | 3340 nM | 0.968 | > 10200 nM | 0.959 | > 1020 nM | 0.906 | > 32000 nM
12 | UM-UC-3 (bladder, adherent) | – | – | 0.85 | 3420 nM | 0.566 | 479 nM | 0.776 | 6000 nM | 0.621 | 672 nM | 0.912 | > 10200 nM | 0.981 | > 1020 nM | 0.753 | 10100 nM
13 | VA-ES-BJ (soft tissue, adherent) | 0.873 | > 5000 nM | 0.95 | > 5000 nM | 0.432 | 207 nM | 0.677 | 3210 nM | 0.818 | 3100 nM | 0.772 | 4190 nM | 0.986 | > 1020 nM | 0.93 | > 32000 nM
14 | VAL (B-cell lymphoma, suspension) | 0.985 | > 5000 nM | – | – | 0.627 | 720 nM | 0.68 | 3180 nM | 0.257 | 64.3 nM | 0.831 | 6540 nM | 0.975 | > 1020 nM | 0.553 | 2790 nM
15 | VCaP (prostate, adherent) | 0.984 | > 5000 nM | 0.986 | > 5000 nM | 0.696 | 1170 nM | 0.83 | 10600 nM | 0.288 | 78.2 nM | 0.889 | > 10200 nM | 0.965 | > 1020 nM | 0.926 | > 32000 nM
16 | VM-CUB-1 (bladder, adherent) | 0.828 | 2930 nM | 0.849 | 3570 nM | 0.657 | 856 nM | 0.784 | 6540 nM | 0.603 | 606 nM | 0.973 | > 10200 nM | 0.989 | > 1020 nM | 0.971 | > 32000 nM
17 | VMRC-RCZ (kidney, adherent) | 0.851 | 4830 nM | 0.896 | > 5000 nM | 0.55 | 448 nM | 0.688 | 3700 nM | 0.814 | 3380 nM | 0.869 | > 10200 nM | 0.98 | > 1020 nM | 0.966 | > 32000 nM
18 | WIL2-NS (lymphoid neoplasm, suspension) | 0.991 | > 5000 nM | – | – | 0.55 | 426 nM | 0.488 | 932 nM | 0.081 | < 20 nM | 0.798 | 3870 nM | 0.966 | > 1020 nM | 0.419 | 1250 nM
19 | WM35 (melanoma, adherent) | 0.475 | 267 nM | 0.194 | 38.1 nM | 0.472 | 268 nM | 0.789 | 7160 nM | 0.452 | 237 nM | 0.928 | > 10200 nM | 0.983 | > 1020 nM | 0.69 | 6870 nM
20 | WM278 (melanoma, adherent) | – | – | 0.542 | 412 nM | 0.468 | 259 nM | 0.766 | 6650 nM | 0.735 | 1650 nM | 0.935 | > 10200 nM | 0.983 | > 1020 nM | 0.979 | > 32000 nM
21 | WM793B (melanoma, adherent) | 0.796 | 2630 nM | 0.786 | 2420 nM | 0.444 | 221 nM | 0.707 | 4110 nM | 0.693 | 1190 nM | 0.935 | > 10200 nM | 0.971 | > 1020 nM | 0.934 | > 32000 nM
22 | WM1552C (melanoma, adherent) | 0.749 | 1630 nM | 0.678 | 982 nM | 0.605 | 625 nM | 0.58 | 1660 nM | 0.636 | 763 nM | 0.88 | > 10200 nM | 0.982 | > 1020 nM | 0.642 | 4970 nM
23 | WM-115 (melanoma, adherent) | 0.551 | 445 nM | 0.69 | 1210 nM | 0.96 | > 5120 nM | 0.888 | > 16000 nM | 0.63 | 796 nM | 0.982 | > 10200 nM | 0.885 | > 1020 nM | 0.864 | > 32000 nM
24 | WSU-DLCL2 (B-cell lymphoma, suspension) | 0.992 | > 5000 nM | 0.992 | > 5000 nM | 0.966 | > 5120 nM | 0.865 | 10300 nM | 0.877 | 3670 nM | 0.993 | > 10200 nM | 0.992 | > 1020 nM | 0.976 | > 32000 nM
25 | WSU-NHL (lymphoid neoplasm, suspension) | 0.961 | > 5000 nM | – | – | 0.609 | 614 nM | 0.715 | 3710 nM | 0.567 | 476 nM | 0.966 | > 10200 nM | 0.989 | > 1020 nM | 0.896 | 30900 nM
26 | YAPC (pancreas, adherent) | 0.877 | > 5000 nM | 0.926 | > 5000 nM | 0.685 | 1210 nM | 0.95 | > 16000 nM | 0.84 | 4850 nM | 0.983 | > 10200 nM | 0.984 | > 1020 nM | 0.927 | > 32000 nM
27 | YT (lymphoid neoplasm, suspension) | 0.632 | 678 nM | 0.992 | > 5000 nM | 0.527 | 376 nM | 0.739 | 4220 nM | 0.249 | 70.1 nM | 0.939 | > 10200 nM | 0.948 | > 1020 nM | 0.344 | 797 nM
28 | huH-1 (liver, adherent) | 0.879 | > 5000 nM | 0.905 | > 5000 nM | 0.771 | 2430 nM | 0.869 | > 16000 nM | 0.978 | > 5120 nM | 0.984 | > 10200 nM | 0.984 | > 1020 nM | 0.984 | > 32000 nM
29 | no-10 (glioma, adherent) | – | – | 0.878 | > 5000 nM | 0.666 | 1030 nM | 0.783 | 8360 nM | 0.645 | 888 nM | 0.963 | > 10200 nM | 0.981 | > 1020 nM | 0.945 | > 32000 nM
30 | no-11 (glioma, adherent) | 0.866 | > 5000 nM | 0.945 | > 5000 nM | 0.612 | 705 nM | 0.785 | 8790 nM | 0.748 | 2020 nM | 0.964 | > 10200 nM | 0.982 | > 1020 nM | 0.901 | > 32000 nM
